The text below walks through data of PubChem BioAssay AID875 (National Center for Advancing Translational Sciences (NCATS), 2007).

Values joined by “and” are separate entries in the source; they are usually repeats but may differ in a detail not shown here. Equal values may be shown once. The whole screen tested about 75,000 compounds, of which about 35 (0.05%) were called active. Calls come from the whole dose curve; as a rule, active = well fitted inhibition curve with a large enough effect; inconclusive = small, poorly fitted or top-dose-only effect; inactive = no such curve, though single readings can be large or run the other way. This is a selection; strong and weak results do not stand in their true shares.
Potency is the fitted concentration of half-maximal effect.

The target of this assay is Breast cancer type 1 susceptibility protein (Homo sapiens) (UniProt P38398). The experiment in a line: qHTS Assay for Inhibitors of BRCT-Phosphoprotein Interaction (Green Fluorophore).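 For activity change, negative = inhibition: plate controls were peptide without protein for full effect.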 The conditions noted are these: BRCA1 BRCT-phosphopeptide binding, green fluorescence polarization; series mostly up to 76.9 µM; activity change, negative = inhibition: at the top concentration. The protocol: NIH Molecular Libraries Screening Centers Network [MLSCN]
Sequence of UniProt P38398 (P38398 whole entry, looked up): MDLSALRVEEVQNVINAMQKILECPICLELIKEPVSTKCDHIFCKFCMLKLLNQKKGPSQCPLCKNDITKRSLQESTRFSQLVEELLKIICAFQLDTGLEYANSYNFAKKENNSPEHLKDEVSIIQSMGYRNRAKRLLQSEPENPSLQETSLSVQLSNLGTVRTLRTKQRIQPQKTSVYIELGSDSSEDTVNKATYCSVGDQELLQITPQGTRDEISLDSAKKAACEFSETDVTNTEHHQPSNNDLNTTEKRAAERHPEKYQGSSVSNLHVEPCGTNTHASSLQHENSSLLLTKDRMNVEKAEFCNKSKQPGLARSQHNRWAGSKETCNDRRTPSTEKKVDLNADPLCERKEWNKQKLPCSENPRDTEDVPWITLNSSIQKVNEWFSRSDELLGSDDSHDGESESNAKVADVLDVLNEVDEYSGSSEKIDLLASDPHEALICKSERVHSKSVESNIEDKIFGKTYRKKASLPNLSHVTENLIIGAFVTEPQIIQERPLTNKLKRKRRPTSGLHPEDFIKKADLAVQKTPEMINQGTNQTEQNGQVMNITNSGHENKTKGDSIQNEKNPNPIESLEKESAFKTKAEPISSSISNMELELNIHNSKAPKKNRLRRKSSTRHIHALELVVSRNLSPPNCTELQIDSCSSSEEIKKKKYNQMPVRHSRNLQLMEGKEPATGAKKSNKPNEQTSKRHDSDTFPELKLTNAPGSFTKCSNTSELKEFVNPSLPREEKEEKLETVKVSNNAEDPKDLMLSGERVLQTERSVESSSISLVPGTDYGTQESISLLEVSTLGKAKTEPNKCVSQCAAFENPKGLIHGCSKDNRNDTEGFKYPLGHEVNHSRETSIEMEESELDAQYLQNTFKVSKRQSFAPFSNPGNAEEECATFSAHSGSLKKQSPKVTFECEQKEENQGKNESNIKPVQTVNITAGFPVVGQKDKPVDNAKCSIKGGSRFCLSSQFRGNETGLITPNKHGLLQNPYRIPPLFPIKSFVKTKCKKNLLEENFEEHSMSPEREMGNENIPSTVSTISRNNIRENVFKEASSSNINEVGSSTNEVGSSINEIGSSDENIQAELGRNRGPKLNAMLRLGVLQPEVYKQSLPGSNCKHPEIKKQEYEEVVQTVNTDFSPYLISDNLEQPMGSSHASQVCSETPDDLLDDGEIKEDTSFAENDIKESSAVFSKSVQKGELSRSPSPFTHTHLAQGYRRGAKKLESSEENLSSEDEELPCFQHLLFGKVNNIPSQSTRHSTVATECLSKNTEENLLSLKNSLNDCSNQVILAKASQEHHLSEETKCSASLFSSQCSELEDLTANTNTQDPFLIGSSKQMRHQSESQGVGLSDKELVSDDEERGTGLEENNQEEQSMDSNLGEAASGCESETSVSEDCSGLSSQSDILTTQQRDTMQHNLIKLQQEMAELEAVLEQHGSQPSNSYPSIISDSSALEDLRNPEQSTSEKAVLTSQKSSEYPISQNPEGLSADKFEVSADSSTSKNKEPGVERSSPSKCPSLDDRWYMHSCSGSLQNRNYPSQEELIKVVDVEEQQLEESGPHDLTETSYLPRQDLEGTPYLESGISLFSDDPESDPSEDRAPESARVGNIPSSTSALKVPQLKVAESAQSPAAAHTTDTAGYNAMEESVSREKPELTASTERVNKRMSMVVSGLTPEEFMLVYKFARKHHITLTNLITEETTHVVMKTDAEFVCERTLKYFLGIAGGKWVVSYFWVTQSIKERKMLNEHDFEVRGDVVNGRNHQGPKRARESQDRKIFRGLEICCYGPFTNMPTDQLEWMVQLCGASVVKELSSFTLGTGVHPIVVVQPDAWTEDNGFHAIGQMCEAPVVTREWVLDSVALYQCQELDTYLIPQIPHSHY
NIH Chemical Genomics Center [NCGC]
PI Name: Natarajan, Amarnath; University of Texas
A complex of BRCT (C-terminal portion of BRCA1, MW ~35 kDa, His-tagged) and fluorescently labeled pBACH1 phosphorylated 10 aa peptide fragment of BACH1, a helicase implicated in DNA repair, is incubated with library members. Inhibitors of BRCT-pBACH1 binding are detected by a decrease in the fluorescence polarization (FP) of the fluorophore. In order to minimize the effect of fluorescence artifacts and to increase the overall robustness of the screen, the compound library members were incubated in separate reactions with fluorescein labeled probe-protein complexes. Protein and labeled probes were supplied by Dr. Amarnath Natarajan, Department of Pharmacology and Toxicology, University of Texas Medical Branch Galveston, TX.
Assay Buffer: 16mM Na2HPO4, 4 mM NaH2PO4, 150 mM NaCl, 1 mM EDTA, 1 mM DTT, 0.02% NaN3, and 0.01% Tween 20 at pH 7.3.
100 nM labeled decapeptide/250 nM protein in columns 1, 2, 5 - 48. Titration of unlabeled decapeptide control (from 10 mM, then 1:2 dilution in duplicate) pin-transferred to column 2, rows 1 to 16. Column 1 is neutral.
Three uL of reagents were dispensed to 1536-well Greiner black solid-bottom plates. Compounds and controls (23 nL) were transferred
via Kalypsys PinTool. The plates were incubated for 12 min at room temperature, and then read on ViewLux (Perkin-Elmer) High throughput CCD imager using FITC for the fluorescein-labeled decapeptide probe polarization filter sets. During dispense, reagent bottles were kept submerged into 4 deg C water bath and all liquid lines were covered with aluminum foil to minimize probe and protein degradation. All screening operations were performed on a Kalypsys robotic system (Kalypsys, Inc., San Diego, CA) containing one RX-130 and two RX-90 anthropomorphic robotic arms. The timing and order of assay plates passing through the screening system were adjusted such that each compound library plate was assayed against the fluorescein- and rhodamine-labeled assay systems at immediately adjacent time points.
Consider `N=C(N)c1ccc(OCCCCCOc2ccc(C(=N)N)cc2)cc1` (tested in a mixture with another compound), for which the “activity change, negative = inhibition” value was inactive: 22.5%.
Still for that read-out and setting: the same measure for `CC[C@@]1(O)C(=O)OCc2c1cc1n(c2=O)Cc2cc3c(CN(C)C)c(O)ccc3nc2-1`: inactive: 1.02% [at 3.08 µM].
In the case of `CCN(C(C)=O)c1nnc(CSc2nc3ccccc3s2)s1`, the “activity change, negative = inhibition” value was inactive: 30.5%.
On the same count and under the same terms, the same measure for `Cc1nc(N=Nc2cc(S(=O)(=O)O)c3cc([N+](=O)[O-])cc(S(=O)(=O)O)c3c2)c(COP(=O)(O)O)c(C=O)c1O`: inactive: -5.92%.
On the same count and under the same terms, the same measure for `N#Cc1sc2nc3c(c(-c4ccco4)c2c1N)CCCC3`: inactive: 35.1%; for `O=c1[nH]c2cc3c(cc2cc1C(c1nnnn1C1CCCCC1)N1CCSCC1)OCCO3` (stereo not drawn): inactive: 37.5%.
As to `CCOc1ccc2noc3c2c1C(=O)c1ccccc1-3`, the Potency is active: 3.98 µM.
In the case of `COCCn1c(=O)c(-c2ccc(Cl)cc2)nc2cnc(N(C)C)nc21`, the “activity change, negative = inhibition” value was inactive: 36.5%.
The same measure, in the same setting: with `CN1CCc2nc(NC(=O)c3cccc(S(=O)(=O)N4CCc5ccccc54)c3)sc2C1` the figure was inactive: 54.4%; with `Cn1c(=O)cc(N2CCc3ccccc32)[nH]c1=O`, inactive: 118%; with `N#CC1=C(N)SC(N)=C(C#N)C1CCc1ccccc1`, inactive: 80.2%.
Consider `CC(C)(C)NC(=O)CSc1nc(O)cc(=O)n1-c1ccccc1F`, for which the “activity change, negative = inhibition” value is inactive: 52.5%.
On to `COc1cc(/C=C(\C#N)C(=O)c2ccc(O)c(O)c2)cc(I)c1O`, for which the “activity change, negative = inhibition” value is inactive: 93.4%.
For `O=C1Nc2ccc(I)cc2/C1=C/c1cc(Br)c(O)c(Br)c1`, the “activity change, negative = inhibition” value was inactive: 40.6%.
On the same count and under the same terms, the same measure for `COc1ccc(Oc2ncc3nc(C)c(=O)n(Cc4ccc(F)cc4)c3n2)cc1`: inactive: 49.4%.
The same measure, in the same setting: with `CN(C)c1ncc2nc(CCc3ccccc3)c(=O)n(Cc3ccc(F)cc3)c2n1` the figure was inactive: 35.1%; with `COc1cccc(Nc2ncc3nc(CCc4ccccc4)c(=O)n(CCC#N)c3n2)c1`, inactive: 34.2%; with `O=c1oc2c3c4c(cc2cc1-c1nc2ccccc2[nH]1)CCCN4CCC3`, inactive: 40.8%.
`O=C1OC2(c3ccc(O)cc3Oc3cc(O)ccc32)c2c1c(-c1ccccc1)c(-c1ccccc1)c(-c1ccccc1)c2-c1ccccc1`: the activity change, negative = inhibition was inactive: 34.5% [at 15.4 µM].
On the same count and under the same terms, with `CCNc1ncc2nc(-c3ccc(OC)cc3)c(=O)n(Cc3cccc(OC)c3)c2n1` the figure was inactive: 80.7%; with `O=c1c(-c2ccc(F)cc2)nc2cnc(Nc3ccccc3)nc2n1Cc1cccs1`, inactive: 33%; with `Cc1cccc(S(=O)(=O)C(C#N)c2nc3ccccc3nc2N2CC(C)OC(C)C2)c1` (stereo not drawn), inactive: 51.3%.
As to `COCCn1c(=O)c(-c2cccs2)nc2cnc(Nc3ccccc3)nc21`, the “activity change, negative = inhibition” value was inactive: 60.3%.
As to `CC1=CC(=C(C#N)c2nc3ccccc3s2)C=C(C)N1Cc1ccco1`, the “activity change, negative = inhibition” value is inactive: 51.9%.
Same read-out and setting: the same measure for `CCOc1ccccc1C1C(C#N)=C(N)SC(N)=C1C#N`: inactive: 108%; for `COc1cccc(Cn2c(=O)c(-c3cccc(C#N)c3)nc3cnc(Nc4ccccc4)nc32)c1`: inactive: 18.4%.
As for `COc1ccc2noc3c2c1C(=O)c1ccccc1-3`, the Potency was active: 3.16 µM.
Take `Cc1ccc(Cn2nc(C)c(NC(=O)c3cc(-c4ccco4)on3)c2C)cc1`: the “activity change, negative = inhibition” value is inactive: 33.4%.
Turning to `CN1CCc2c(sc3c2C(=O)NC(c2cccc(OC(=O)c4cccs4)c2)N3)C1` (stereo not drawn), the “activity change, negative = inhibition” value was inactive: 31.7%.
For `N#CC1=C(N)OC2=C(CCC/C2=C/c2ccoc2)C1c1ccoc1` (stereo not drawn), the “activity change, negative = inhibition” value is inactive: 32%.
The same measure, in the same setting: with `CCNc1ncc2nc(-c3ccc(Cl)cc3)c(=O)n(-c3ccccc3)c2n1` the figure was inactive: 99.2%.
The same measure, in the same setting: with `CSc1ccc(C2C(C#N)=C(N)Oc3c2ccc(=O)c2c(C)oc(C)c32)cc1` (stereo not drawn) the figure was inactive: 36.6%; with `Cc1nn(Cc2ccc(F)cc2)c(C)c1NC(=O)c1cc(-c2ccco2)on1`, inactive: 30.6%; with `CCOc1ccc(C2C(C#N)=C(N)SC(N)=C2C#N)cc1OCC`, inactive: 176%.
For `COc1cc2c(C=O)c3c4c(cc(OC)c(OC)c4c2cc1OC)CCN3C`, the “activity change, negative = inhibition” value is inactive: 68.4%.
On the same count and under the same terms, with `N#CC(C(=O)NCc1ccccc1)c1nc2ccccc2nc1N1CCCC1` (stereo not drawn) the figure was inactive: -106%; with `COC(=O)[C@@]1(Cc2ccc(OC)cc2)[C@H]2c3cc(C(=O)N(C)C)n(Cc4nc5ccccc5[nH]4)c3C[C@H]2CN1C(=O)c1ccccc1`, inactive: 32.9%; with `Cc1nnc2sc(-c3ccc(NC(=O)c4cccnc4)cc3)nn12`, inactive: 63.8%.
The same measure, in the same setting: the same measure for `CCNc1ncc2nc(CCc3ccccc3)c(=O)n(-c3ccccc3)c2n1`: inactive: 47.5%.
On to `O=C(O)C1=CC(=C(c2ccc(O)c(C(=O)O)c2)c2ccc(O)c(C(=O)O)c2)C=CC1=O`, for which the Potency was active: 12.6 µM and active: 15.8 µM.
Turning to `CC(=O)c1sc2nc(-c3cccs3)cc(C(F)(F)F)c2c1N`, the “activity change, negative = inhibition” value is inactive: 41.7%.
Turning to `CCNc1ncc2nc(-c3cccs3)c(=O)n(-c3ccc(OC)cc3)c2n1`, the “activity change, negative = inhibition” value is inactive: 78.3%.
Same read-out and setting: with `CN(C)c1ncc2nc(CCc3ccccc3)c(=O)n(-c3ccccc3)c2n1` the figure was inactive: 35.4%.
Take `CC1(C)c2ccccc2N2CC(=O)N(CC(N)=O)C21C` (stereo not drawn): the “activity change, negative = inhibition” value was inactive: 63.1%.
Still for that read-out and setting: with `CCc1ccc(C2C(C#N)=C(N)SC(N)=C2C#N)cc1` the figure was inactive: 120%.
In the case of `CCNc1ncc2nc(-c3ccc(F)cc3)c(=O)n(CCC#N)c2n1`, the “activity change, negative = inhibition” value was inactive: 49.9%.
Consider `COc1ccc(C2C(C(C)=O)=C(C)N=c3s/c(=C\c4cc(C)n(C)c4C)c(=O)n32)c(OC)c1` (stereo not drawn), for which the “activity change, negative = inhibition” value is inactive: 57%.
Same read-out and setting: the same measure for `COc1ccc2c(c1)S/C(=C\C(=O)c1ccncc1)N2C`: inactive: 59.2%.
